# Source: a collection of fitness landscapes (doi:10.1016/j.celrep.2020.107928)
# The full ranking holds about 81,000 sequences; the median of “one-hybrid fitness for binding parS DNA” is about -0.17, and the highest 2% start at about 0.51. The list shows a part of the results.
# B1: Caulobacter ParB omega fusion; a variant is named by its letters at X, in order, B8GW30 (parent)
# chain: MESVVVGEPGMSEGRRGLGRGLSALLGEVDAAPAQAPGEQLGGSREAPIEILQRNPDQPRRTFREEDLEDLSNSIREKGVLQPILVRPSPDTAGEYQIVAGERAWRAAQRAGLKTVPIMVRELDDLAVLEIGIIENVQRADLNVLEEALSYKVLMEKFERTQENIAQTIGKSXSHVANXMRLLXLPDEVQSYLVSGELTAXHARAIAAAADPVALAKQIIEGGLSVRETEALARKAPNLSAGKSKGGRPPRVKDTDTQALESDLSSVLGLDVSIDHRGSTGTLTITYATLEQLDDLCNRLTRGI
# Variants of: B1
# Experiment: one-hybrid fitness for binding parS DNA (scaled: cognate 1, non-cognate 0); higher = stronger binding
# Conditions: with parS DNA site
# Summary of the method: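 Fitness is the rescaled log change in variant-to-wild-type read ratio, measured by Illumina sequencing of plasmids before and after bacterial one-hybrid selection. The scale puts cognate at 1 and non-cognate at 0. Selection of Caulobacter ParB libraries, four specificity codons randomised, took place in E. coli USO with a HIS3 reporter, site 19 bp from the promoter, over 48 hours at 37°C on M9-minus-histidine with 0.1 mM IPTG and 5 mM 3-AT.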
row,Variant,one-hybrid fitness for binding parS DNA
1,NNFM,≤ 0.2
2,RQNG,1.01
3,LLKC,≤ 0.2
4,IGTR,≤ 0.2
5,EQDC,≤ 0.2
6,NYNL,≤ 0.2
7,HHGT,≤ 0.2
8,TCRA,≤ 0.2
9,SCLE,≤ 0.2
10,CKIP,≤ 0.2
11,DRKN,≤ 0.2
12,TIRM,≤ 0.2
13,STFV,≤ 0.2
14,LSHR,≤ 0.2
15,TIFT,≤ 0.2
16,CGSG,≤ 0.2
17,WYPP,≤ 0.2
18,PFMN,≤ 0.2
19,MVYL,≤ 0.2
20,GNHT,≤ 0.2
21,VTNL,≤ 0.2
22,QKRL,≤ 0.2
23,NVDI,≤ 0.2
24,LFEG,≤ 0.2
25,GFKG,≤ 0.2

row,Variant,one-hybrid fitness for binding parS DNA
1,RYHM,0.298
2,CHNR,≤ 0.2
3,NAMG,≤ 0.2
4,SLTL,≤ 0.2
5,DISL,≤ 0.2
6,QACW,≤ 0.2
7,RNYA,0.467
8,QKNT,≤ 0.2
9,PVQW,≤ 0.2
10,NQNR,≤ 0.2
11,VRNI,≤ 0.2
12,FNSS,≤ 0.2
13,DHSR,≤ 0.2
14,HATW,≤ 0.2
15,RRQP,≤ 0.2
16,DQFT,≤ 0.2
17,QIKD,≤ 0.2
18,SQPP,≤ 0.2
19,KSQA,≤ 0.2
20,RNDS,0.823
21,DNKG,≤ 0.2
22,PFSA,≤ 0.2
23,THDC,≤ 0.2
24,DESC,≤ 0.2
25,LAHQ,≤ 0.2

row,Variant,one-hybrid fitness for binding parS DNA
1,GFSR,≤ 0.2
2,HFPR,≤ 0.2
3,PKRS,≤ 0.2
4,SPDL,≤ 0.2
5,KRHE,≤ 0.2
6,VTVL,≤ 0.2
7,PTTS,≤ 0.2
8,RGLS,0.65
9,LPTW,≤ 0.2
10,PLAI,≤ 0.2
11,FIFF,≤ 0.2
12,VRMS,≤ 0.2
13,RQVH,≤ 0.2
14,PLIH,≤ 0.2
15,VRPM,≤ 0.2
16,QIYC,≤ 0.2
17,SAAA,≤ 0.2
18,PFSK,≤ 0.2
19,RYCC,0.903
20,NRLV,≤ 0.2
21,VMRT,≤ 0.2
22,CSAD,≤ 0.2
23,LQSA,≤ 0.2
24,MTNI,≤ 0.2
25,ALSR,≤ 0.2

row,Variant,one-hybrid fitness for binding parS DNA
1,YKHK,≤ 0.2
2,EICS,≤ 0.2
3,QYWM,≤ 0.2
4,QEAT,≤ 0.2
5,DLEM,≤ 0.2
6,DCCT,≤ 0.2
7,VSHR,≤ 0.2
8,VNWR,≤ 0.2
9,PNTS,≤ 0.2
10,EHEV,≤ 0.2
11,RFGA,0.531
12,ETGG,≤ 0.2
13,DIKG,≤ 0.2
14,RMMQ,0.215
15,DSAL,≤ 0.2
16,HIAW,≤ 0.2
17,LAKS,≤ 0.2
18,YAAV,≤ 0.2
19,CLRG,≤ 0.2
20,DLPV,≤ 0.2
21,LFIG,≤ 0.2
22,PFIL,≤ 0.2
23,YPSE,≤ 0.2
24,KRNP,≤ 0.2
25,PPAP,≤ 0.2

row,Variant,one-hybrid fitness for binding parS DNA
1,PCMA,≤ 0.2
2,FILS,≤ 0.2
3,WYGK,≤ 0.2
4,IPQL,≤ 0.2
5,SYAA,≤ 0.2
6,KVLD,≤ 0.2
7,FNFS,≤ 0.2
8,SMYS,≤ 0.2
9,SRTS,≤ 0.2
10,KEDC,≤ 0.2
11,LWYL,≤ 0.2
12,IRRT,≤ 0.2
13,SSRL,≤ 0.2
14,GEQG,≤ 0.2
15,CVMI,≤ 0.2
16,SDPW,≤ 0.2
17,PIHM,≤ 0.2
18,GNRC,≤ 0.2
19,DIVC,≤ 0.2
20,STPP,≤ 0.2
21,ETDL,≤ 0.2
22,QWRC,≤ 0.2
23,HSGK,≤ 0.2
24,QLAD,≤ 0.2
25,EPSC,≤ 0.2

row,Variant,one-hybrid fitness for binding parS DNA
1,NVTA,≤ 0.2
2,EFWR,≤ 0.2
3,NDPM,≤ 0.2
4,VSKS,≤ 0.2
5,FVKG,≤ 0.2
6,RHWR,≤ 0.2
7,TPCY,≤ 0.2
8,HNAW,≤ 0.2
9,TVGM,≤ 0.2
10,AMDY,≤ 0.2
11,SWDM,≤ 0.2
12,YRSS,0.289
13,RMPH,≤ 0.2
14,RFWF,≤ 0.2
15,IWLV,≤ 0.2
16,SYQR,≤ 0.2
17,SIRI,≤ 0.2
18,GWYV,≤ 0.2
19,NTTD,≤ 0.2
20,MTWA,≤ 0.2
21,QTLR,≤ 0.2
22,WAAN,≤ 0.2
23,TGPM,≤ 0.2
24,SKAW,≤ 0.2
25,AKWL,≤ 0.2

row,Variant,one-hybrid fitness for binding parS DNA
1,HLTL,≤ 0.2
2,NRTM,≤ 0.2
3,ARLS,≤ 0.2
4,AYGA,≤ 0.2
5,PTMR,≤ 0.2
6,RIGG,1.02
7,DHKS,≤ 0.2
8,PKAL,≤ 0.2
9,ALDT,≤ 0.2
10,AWTI,≤ 0.2
11,DCRE,≤ 0.2
12,YEEE,≤ 0.2
13,KPID,≤ 0.2
14,RDCQ,≤ 0.2
15,HLLI,≤ 0.2
16,NHSR,≤ 0.2
17,CACC,≤ 0.2
18,RYIL,0.204
19,TFCI,≤ 0.2
20,TAKW,≤ 0.2
21,REKG,0.533
22,QASP,≤ 0.2
23,CIKT,≤ 0.2
24,NRTL,≤ 0.2
25,PYAC,≤ 0.2

row,Variant,one-hybrid fitness for binding parS DNA
1,MSQP,≤ 0.2
2,EDMV,≤ 0.2
3,LDLP,≤ 0.2
4,NIRY,≤ 0.2
5,QPDW,≤ 0.2
6,DHTW,≤ 0.2
7,NLLG,≤ 0.2
8,RHKC,0.858
9,GPIS,≤ 0.2
10,GTLC,≤ 0.2
11,IGRR,≤ 0.2
12,ASHP,≤ 0.2
13,ATLF,≤ 0.2
14,APPV,≤ 0.2
15,GQDK,≤ 0.2
16,TTVD,≤ 0.2
17,DHTE,≤ 0.2
18,ERPR,≤ 0.2
19,YYPI,≤ 0.2
20,WSCC,≤ 0.2
